Some of the results follow.
test system: PfHDP1 homeodomain (GST-tagged); test: gcPBM binding intensity (ln(normalized median fluorescence intensity)); higher = stronger DNA binding
In short: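 The highest Masliner-normalised natural-log median intensity across replicate spots of either probe orientation is reported as binding intensity. GST-tagged P. falciparum DNA-binding domains expressed in E. coli were applied for 1 h to an Agilent 4 × 180k array of primer-extended double-stranded 36-bp intergenic genomic probes plus negative controls, and bound protein was detected with Alexa488 anti-GST antibody and scanned at 488 nm.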

| Sequence | gcPBM binding intensity (ln) |
| --- | --- |
| GCATACATCAAGCACACACACACACGCACACGCACA [CACACA_site6311] | 7.18 |
| TTATGGATGGACAATAATAAAATTTTTACTTTTATT [CACACA_negctrl_site908] | 6.44 |
| TTATGTTTCATAAAAAATTAATCAAACATATATAAG [CACACA_negctrl_site666] | 5.96 |
| GTGAAGTTCAAAATATGTACTTATGTATGTATTTTT [XGTACX_site165] | 5.94 |
| TAAATATAACAGAATAATATGTGGATTAATAAATGA [CACACA_negctrl_site438] | 6.41 |
| AAAAAAAAAAAAAAAACACACATGTATACTAGAATA [CACACA_site7108] | 6.78 |
| TTAAGTTACAATTCTCGTACACATTAAAAGAAAATT [XGTACX_site699] | 6.33 |
| ATATAATATGTTGAATGTACTTAAAAAAATGTATCT [XGTACX_site5385] | 6.33 |
| TATAAGAAATAAAACCTGATTATAAACCTGTAACCA [CACACA_negctrl_site1302] | 6.23 |
| TTACAAATGTAGAAAAGTACATATAATAATAATTTA [XGTACX_site3044] | 6.3 |
| ATTTGTATAATAAGTTGTACAATTCTTACAATATAA [XGTACX_site4164] | 6.45 |
| GGTAGAAAATCAGTTAAACACACACCGAAAAAAAAA [CACACA_site8934] | 6.56 |
| AAAAAAAAAAAAAGCACACACACATATGCGTATATA [CACACA_site953] | 6.43 |
| TTTAAGCGTTCACTGCTGCACTTTTATGTTGTGACC | 6.36 |
| ATGGATAATAATAAGTGTACACATATATTTAGAAGA [XGTACX_site244] | 7.06 |
| TCCTATTTTATATAATGTACATAAATATATTACATA [XGTACX_site2720] | 6.45 |
| AAGAGCAACCAAATAGAAAAAGGAAAATAAAAGGAA [CACACA_negctrl_site100] | 6.61 |
| TTTGTTCAATTTACATGTACAGATATAATCTAACAT [XGTACX_site370] | 6.21 |
| ATTTTTATTTTATATACACACAATAATAATATAATA [CACACA_site4015] | 6.74 |
| TCTATTAAAACAAATTGTACTTATTGATAAAGAATA [XGTACX_site3645] | 6.31 |
| AAGGCAAACAGACACACACACATATATACCTATATA [CACACA_site7077] | 6.64 |
| GTTGCCATCATTTGGCGTACAGTCAAAACCAAATCT [XGTACX_site1398] | 6.07 |
| GTTATACACATTACATGTACAAAAGTTGCACTTCAT [XGTACX_site6023] | 9.57 |

| Sequence | gcPBM binding intensity (ln) |
| --- | --- |
| GTTATAAATAAATATACACACATATATAAAATACAT [CACACA_site7146] | 6.6 |
| AAATTTTTTTTTTAATTTTTTATTTAAAAAAAATAT [TGCATGCA_negctrl_site174] | 5.89 |
| TATAACATAAAACACACACACATACATACACAAAAA [CACACA_site1804] | 7.15 |
| CGCTTTATTTATATATGTACATATATATATATATAC [XGTACX_site5012] | 6.85 |
| TAAAATAACTCACAAAGTACAAAAATAAGCATATGA [XGTACX_site7046] | 6.87 |
| TACATGATAGATCACACACACATATAAATATATATA [CACACA_site5562] | 6.6 |
| ACATAAGACACAAATACACACAAAAATATATAACAA [CACACA_site4082] | 6.9 |
| TATGCATTTATGCATTGTACTTTTATAGATTCCACC [XGTACX_site7121] | 6.22 |
| AACAATATGGATGTATGTACACATATAGAACGTTAT [XGTACX_site7142] | 6.88 |
| ATGAACGGAAAAATATATATAAATATATATATCATG [XGTACX_negctrl_site342] | 6.18 |
| TATGTATATATATTAACACACAAAAAAAAAAAAAAA [CACACA_site1812] | 6.2 |
| TTAAACTATACCAAAACACACATACAAAATATAAAA [CACACA_site5494] | 6.87 |
| GAAATTTTATTACTTTTACACACCTATATATTATTC [CACACA_site9076] | 6.58 |
| ATATTATATATACACGCACACACACTAATATATATA [CACACA_site9092] | 7.77 |
| TACAAAAAAAAAGAACGTACAAAAAATTTCAAAAAT [XGTACX_site5860] | 6.37 |
| GGTATACTCAAGTATACACACATATATATATATATA [CACACA_site5746] | 9.47 |
| AAAATATATTAAGGCACACACATACAGATATATATA [CACACA_site5951] | 7.03 |
| TACGTGAAATTATATACACACATAAATATGGGTGTA [CACACA_site5687] | 6.57 |
| TACATACACAAATACACACACAAATACATACCCAAA [CACACA_site4550] | 7.29 |
| TTTTTTCTTTTTTTTTTTTTTTTCTTTTTTTTTTTT [GTGCAC_negctrl_site196] | 5.96 |
| AAGAAAATGTATATATGTACATACAATCAAAAGAAG [XGTACX_site3454] | 7.24 |
| AAATATATATTCATGTGTACACACAAAAAAAAATAA [XGTACX_site4552] | 7.82 |
| AAAAATTTTCAAGTGTGTACATATTTTCATTTAACA [XGTACX_site6186] | 6.43 |

| Sequence | gcPBM binding intensity (ln) |
| --- | --- |
| TAATAAAAAATTAAAAAAAATAAAAATAAAAATAAA [GTGCAC_negctrl_site78] | 6.38 |
| CATACATATACTTTGTGTACATATATATATTATATA [XGTACX_site97] | 6.8 |
| ATGTATATATTTTTATGTACATATTTTTAATTTATA [XGTACX_site2982] | 5.72 |
| TTTTTATTTAGCTAAGCATGCTAACGATGACACTTC [TGCATGCA_site79] | 6.46 |
| TTTATACTTTTAAATTGTACTATAAAAAGGAATACA [XGTACX_site2537] | 6.35 |
| AAGAAAAAGTATCCTCTATCTTTATATAAACTATTA [TGCATGCA_negctrl_site2] | 5.95 |
| GAATATTCAACATAATGTACAAGTATTCATTTCTTT [XGTACX_site7860] | 6.3 |
| TAATAAACTTAAAAATGTACATATATTTATTATTAC [XGTACX_site4321] | 6.26 |
| AAAATTCATAAATACACACACGCACATATATATATA [CACACA_site4227] | 9.07 |
| CAAAAATAAAAGAAATGTACAAAAAATAATAAAAAA [XGTACX_site6597] | 6.69 |
| TATATGTAGATTAAACGTACTTACAACGGAATTATC [XGTACX_site3036] | 6.67 |
| TGCCATCATATCATAGGTACACAAACATATAAAGAA [XGTACX_site4137] | 7.05 |
| AAATGTTCAGAAACTATTATAAAAATGGAATAATAT [CACACA_negctrl_site1544] | 6.56 |
| GTATTATATTTTAATACACACCCAAATATTAAAAAG [CACACA_site8968] | 6.79 |
| TTATGCTCAAAGAAAAGTACATAAATAAAAGTATAT [XGTACX_site7365] | 7.62 |
| TTAACAAATAAATGCACACATATATATAAATAATAT [CACACA_site28] | 9.43 |
| CTTAATATGGATATTGCATGTAGAACATGAACAATA [TGCATGCA_site760] | 6.29 |
| TAAATATTATATTTATGTACATAAGTTTTTTTTAAT [XGTACX_site3559] | 6.53 |
| TATATCTATTTCAAATGTACTTATATGATTCTTATA [XGTACX_site6277] | 6.31 |
| AGCTACAAAAATTAATATATATATGTATAGTTATAC [TGCATGCA_negctrl_site531] | 6.25 |
| AGTTTAATTTTGTATACACACATTTGAATTATTAAT [CACACA_site7625] | 6.91 |
| AAATTACTGTAAAAAAGTACAGAAGTTCTTATTTTT [XGTACX_site7416] | 5.9 |
| GTTCATATAATAAAATGTACATAATATATTATATAT [XGTACX_site7623] | 6.4 |

| Sequence | gcPBM binding intensity (ln) |
| --- | --- |
| TAAAAGTTGAAGCACACACACAAAAGAAATACAATA [CACACA_site6649] | 7.21 |
| ATTGAGGCTGGTTATATAATAATTTTATTATTTTAG [GTGCAC_negctrl_site409] | 6.32 |
| ATATATTTATATTTTTGTACCCAAAATTGTTTGATG [XGTACX_site3581] | 6.45 |
| TATCTCCACAAAAGATGTACTCATATTAATTTATAA [XGTACX_site3535] | 6.02 |
| GTATACAACATATGAACACACAAAATATTTTTTTTT [CACACA_site2928] | 6.63 |
| TTAAAGCTTGCATATACACACATACATAAATTCATA [CACACA_site7208] | 6.89 |
| TTTTTTTTTTTTTATTGTACATACTTTTAAATATAT [XGTACX_site4303] | 6.59 |
| GTATATAAATAAATAGTGCATTATTAAAAATAATGT | 9 |
| TATATAATATATTTATGTACTCACAATGGGGTCTAC [XGTACX_site2691] | 7 |
| ATAAATAAAGGACACACACACACACTAATAAAAAAA [CACACA_site8840] | 7.04 |
| TTTGTTATATTTAATACACACATATTATAAACACAT [CACACA_site7703] | 6.88 |
| TATGAAAAGTAAAGTACACACAGGAAAAAAAAAAAA [CACACA_site1749] | 6.48 |
| TAAACACCCATACATACACACATACATACACCCATA [CACACA_site5125] | 6.91 |
| TTCTTCAATATATTCTTACACACTTAAAAAAAAAAA [CACACA_site228] | 6.55 |
| ATATATATATATATATGTACATAATGCATATAATAT [XGTACX_site6142] | 9.28 |
| GAAGGAAAAGATACGATAAAATAAGATATTAATTTA [GTGCAC_negctrl_site419] | 6.01 |
| TTAATACTTTTTTCTGTACACACTTGATTTACTATA [CACACA_site2799] | 6.69 |
| TTTTTTTTTTATTGTACATGCAAAAAATTCCACACA [TGCATGCA_site279] | 6.47 |
| AGCATATTATTTTAGGTGCACTTGAAATGTGTTAAC | 9.32 |
| TTTAAATAAAATATTACACACTTAGAAAGATATATA [CACACA_site7684] | 6.06 |

— the supplement of paper PMC11417369
